Hit rate of the full screen: of about 310,000 compounds, about 14,000 (4.5%) showed an effect of 50% or more. Effects have a minus sign here. Some of the results follow.
target: human ether-à-go-go-related gene (hERG) potassium channel (human, UniProt Q12809); assay: primary screen, population patch clamp on CHO cells stably expressing hERG
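Also: peak tail current of the secondary pulse compared with the same well before compound.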

Chain of human ether-à-go-go-related gene (hERG) potassium channel (Q12809 whole entry, looked up): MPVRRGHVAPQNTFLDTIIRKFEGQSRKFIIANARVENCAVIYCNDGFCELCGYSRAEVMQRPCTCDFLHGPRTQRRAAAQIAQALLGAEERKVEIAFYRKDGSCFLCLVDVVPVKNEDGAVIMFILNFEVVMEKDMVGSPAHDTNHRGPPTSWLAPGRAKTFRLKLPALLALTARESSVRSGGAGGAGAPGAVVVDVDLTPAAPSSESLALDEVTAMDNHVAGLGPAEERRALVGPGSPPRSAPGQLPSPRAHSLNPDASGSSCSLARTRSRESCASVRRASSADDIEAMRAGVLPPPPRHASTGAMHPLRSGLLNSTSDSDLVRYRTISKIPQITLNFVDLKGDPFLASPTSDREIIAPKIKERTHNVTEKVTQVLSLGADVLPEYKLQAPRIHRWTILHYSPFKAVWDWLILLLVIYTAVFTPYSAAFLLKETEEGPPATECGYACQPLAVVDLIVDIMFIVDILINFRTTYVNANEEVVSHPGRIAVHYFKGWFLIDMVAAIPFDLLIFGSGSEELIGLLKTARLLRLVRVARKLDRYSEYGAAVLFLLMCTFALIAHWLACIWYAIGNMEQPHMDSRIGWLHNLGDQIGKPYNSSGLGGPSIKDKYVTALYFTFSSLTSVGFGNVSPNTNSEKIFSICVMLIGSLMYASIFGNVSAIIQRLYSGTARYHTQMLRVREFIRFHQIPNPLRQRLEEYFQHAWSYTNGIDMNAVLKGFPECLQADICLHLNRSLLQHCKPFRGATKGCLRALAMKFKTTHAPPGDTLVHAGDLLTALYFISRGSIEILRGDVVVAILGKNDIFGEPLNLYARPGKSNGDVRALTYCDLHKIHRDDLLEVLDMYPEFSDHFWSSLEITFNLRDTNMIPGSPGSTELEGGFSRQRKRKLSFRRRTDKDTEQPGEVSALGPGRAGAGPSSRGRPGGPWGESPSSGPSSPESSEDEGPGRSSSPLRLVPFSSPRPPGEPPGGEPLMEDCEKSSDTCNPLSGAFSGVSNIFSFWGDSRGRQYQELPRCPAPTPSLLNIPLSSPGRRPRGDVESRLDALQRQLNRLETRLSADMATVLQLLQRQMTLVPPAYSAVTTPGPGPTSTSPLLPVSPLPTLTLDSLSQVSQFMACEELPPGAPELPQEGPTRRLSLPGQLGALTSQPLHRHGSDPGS

SMILES | hERG current change (%, negative = inhibition) at 10uM
CC(=O)NC(CC(=O)N1CCN(C(C)=O)CC1)c1ccccc1 (stereo not drawn) | 27%
CN1CCN(c2ccc(C(F)(F)F)cc2N)CC1 | -5.95%
CCOC(=O)c1cccc(NC(=O)CN2C(=O)C3CC=CCC3C2=O)c1 (stereo not drawn) | -42.6%
COc1ccc2[nH]cc(CCCN3C(=O)c4ccccc4C3=O)c2c1 | -4.87%
CN(CC(=O)Nc1ccccc1Br)C(=O)Cn1[nH]c(=O)c2ccccc2c1=O | 9.43%
COC(=O)Cn1nc(-c2ccccc2)c2ccccc21 | 4.12%
Cc1nnc(SCC(=O)c2c(N)n(C)c(=O)n(C)c2=O)n1Cc1ccccc1 | 13.6%
CCCCn1c(=O)c(C(=O)Nc2ncccc2C)c(O)c2ccccc21 | 14.6%
Cn1c(CN2CCCCC2)nc2cc(NC(=O)c3cccs3)ccc21 | -31.2%
COc1ccc(NS(=O)(=O)c2cc(NC(=O)CNC(=O)c3ccc(C)s3)ccc2Cl)cc1 | -6.77%
CCOC(=O)C1=C(O)/C(=C\c2cccc(OC)c2)N=C1C | -2.93%
C=CCn1cn[nH]c1=S | 22.9%
C/C(=N\Nc1cc(-c2ccccc2)nc(-c2ccccc2)n1)c1ccc(O)c(C)c1 | 4.51%
CCc1ccccc1NC(=O)c1ccc(-n2c(C)ccc2C)cc1 | -12.1%
CCN(CC)C(=O)CSc1nc(-c2ccc(C)cc2)nc2c1COC(C)(C)C2 | -14.2%
COc1ccc(Cl)cc1NC(=O)CSc1nnc(Cn2c(=O)sc3ccccc32)n1C | -35.7%
COc1ccc(C(=O)Nc2ccc3ccccc3c2)c(OC)c1 | 17.6%
Cc1nc(N)c(Cc2ccc(Cl)cc2Cl)c(N)n1 | 18.8%
CC12CCC(=O)N1C(C(=O)Nc1cc(S(=O)(=O)N3CCCCCC3)ccc1OCC(F)(F)F)CS2 (stereo not drawn) | -44.1%
O=C(OCC(=O)C12CC3CC(CC(C3)C1)C2)c1cccnc1Cl | 19.1%
Cc1ccc(Cl)cc1N1CCN(C(=O)CCCn2c(=O)c3cccn3c3cccnc32)CC1 | -15.1%
O=C(OCC(=O)N1CCc2ccccc21)C1=COCCO1 | 6.94%

SMILES | hERG current change (%, negative = inhibition) at 10uM
O=C(CCNC(=O)C1CCN(S(=O)(=O)c2ccc(F)cc2)CC1)Nc1ccccc1 | 7.44%
COc1ccc(C)cc1NC(=O)NNC(=O)C(C)Oc1ccc(F)cc1Cl (stereo not drawn) | -22.4%
O=C(COc1ccccc1-c1ccccc1)NNC(=O)NC1CCCCC1 | -42.8%
COc1ccc(C(=O)CN2CCOCC2)cc1F.Cl | 13.8%
CCCCn1c(SCC(=O)Nc2cc(NC(=O)c3ccco3)ccc2C)nc2ccccc2c1=O | -8.62%
N#Cc1ccccc1OCC(=O)N1CCN(S(=O)(=O)c2ccc(Cl)cc2)CC1 | -37.1%
Cc1nc2ccccc2n1C(=O)N(C)C | 30.3%
COc1ccc(C(=O)OCC(=O)Nc2c(C)n(C)n(-c3ccccc3)c2=O)cc1OC | 16.5%
Cc1ccc2nc(CSc3nnc(Nc4ccccc4C)s3)cc(=O)n2c1 | -43%
COc1cc(Br)cc2cc(C(=O)N3CCOCC3)c(=O)oc12 | -2.63%
Cn1c(-c2ccc(Cl)cc2)cnc1N | 5.12%
Cc1onc(-c2ccccc2Cl)c1C(=O)N1CCN(c2ncccn2)CC1 | 2.45%
O=C(NC1CCc2ccccc21)c1cc(COc2c(F)cccc2F)on1 (stereo not drawn) | -1.25%
CCc1c(C)nc2c(-c3ccccc3)c(-c3ccccc3)[nH]n2c1=O | 15.3%
COc1ccc(C(NC(C)=O)c2ccc3cccnc3c2O)c(OC)c1 (stereo not drawn) | -11.4%
O=C(CCN1CCN(Cc2ccccc2)CC1)Nc1ccc(OCc2ccccc2)cc1 | -45.7%
COc1ccc(-c2cc3ncccc3cn2)cc1 | 1.16%
Br.Nc1nc2c(s1)CCc1ccccc1-2 | 20.9%
N#Cc1c(-c2ccccc2)nc(-c2ccncc2)[nH]c1=O | -71.5%
COc1ccccc1-c1cc(C(F)(F)F)nc(NCc2ccco2)n1 | -0.674%
CCOC(=O)Cc1c(C)nc2c(-c3ccc(Cl)cc3)c[nH]n2c1=O | -8.34%
COc1ccc(NC(=O)C2CCCCN2N)cc1OC (stereo not drawn) | 10.3%

SMILES | hERG current change (%, negative = inhibition) at 10uM
N#C/C(=C\C=C\c1ccccc1[N+](=O)[O-])C(=O)NC1CCCCC1 | 0.177%
COc1cccc(-c2c(C(=O)N/N=C/c3ccsc3)nnn2-c2nonc2N)c1 | 10.6%
C/C(Cn1nc([N+](=O)[O-])cc1C)=N\NC(=O)COc1ccccc1[N+](=O)[O-] | -17.4%
CC(=O)Nc1ccc(S(=O)(=O)Nc2nc(-c3ccc(C(C)(C)C)cc3)cs2)cc1 | 9.64%
O=C(NCCc1ccccc1)C1CCN(S(=O)(=O)c2cccnc2)CC1 | 12.9%
CC(C)CN(C(=O)CCNC(=O)c1ccc(Cl)cc1)c1c(N)n(CC(C)C)c(=O)[nH]c1=O | -5.09%
O=C(COC(=O)/C=C/c1ccccc1Cl)NC(=O)NCc1ccccc1 | 9.4%
CCn1c(CNc2ccc(F)cc2)nnc1SCC(=O)OC1CCCCC1 | -51.7%
CC1(C)CC(=O)C=C(Nc2ccc(O)c(C(=O)O)c2)C1 | 18.1%
CCn1c(SCC(=O)Nc2cc(S(=O)(=O)N3CCOCC3)ccc2OC)nnc1-c1ccncc1 | 13.8%
N/C(CC(=O)Nc1cc(C(F)(F)F)ccc1Cl)=N\O | 1.64%
CCc1c(C)c2ccc(OC(C)C(=O)NC(Cc3c[nH]c4ccc(O)cc34)C(=O)O)c(C)c2oc1=O (stereo not drawn) | 6.81%
CCCOc1ccc(N2C(=O)CC(N3CCN(c4nc5ccccc5s4)CC3)C2=O)cc1 (stereo not drawn) | 8.46%
CCC(=O)Nc1nc2ccc(S(C)(=O)=O)cc2s1 | -1.04%
O=c1c2ccccc2nc(CN2CCOCC2)n1-c1ccccc1F | 6.4%
O=C(CC(c1ccccc1)c1cc(Br)ccc1O)N1CCCCC1 (stereo not drawn) | -10.8%
Cc1ccc2[nH]c(=O)c(CN(CC3CCCO3)C(=S)Nc3ccccc3)cc2c1 (stereo not drawn) | -8.2%
CCCCC(=O)N1C/C=C\[C@H](c2ccc(OC)cc2)N(Cc2ccc(F)cc2)C(=O)[C@@H]1C | -68.6%
CC1CCCCN1C(=O)COC(=O)C1CCN(S(=O)(=O)c2c(Cl)cccc2Cl)CC1 (stereo not drawn) | -56.4%
C=CCOc1cccc(C2c3c(oc4ccccc4c3=O)C(=O)N2c2ccccn2)c1 (stereo not drawn) | -0.00012%
O=C(CNS(=O)(=O)c1cccc2nsnc12)NCCc1ccccc1 | 3.2%
O=C(NNC(=S)NCc1ccc(Cl)cc1)c1cccnc1 | 14.4%

SMILES | hERG current change (%, negative = inhibition) at 10uM
Cc1cc(C)c(C(=O)N2CCCC(Nc3ccc(F)cc3)C2)o1 (stereo not drawn) | 9.39%
CCc1c(C)sc(NC(=O)/C=C/C(=O)O)c1C(N)=O | 36.5%
CC(C)CCNC(=O)c1cc(-c2ccncc2)nc2ccc(S(=O)(=O)N3CCOCC3)cc12 | -2.03%
Cc1c(C)c2c(OCC(=O)N3CCC(C(=O)O)CC3)cc3c(c2oc1=O)CCC(C)(C)O3 | 3.54%
COc1cccc(NC(=O)CN(C)S(=O)(=O)c2ccc3c(c2)n(C)c(=O)c(=O)n3C)c1 | 8.84%
O=C(c1ccc(Br)o1)N1N=C(c2ccc(Cl)cc2)CC1c1ccco1 (stereo not drawn) | -3.81%
COc1ccc(/C=C/C(=O)NCC(=O)N/N=C(\C)Cc2ccccc2)cc1 | 10.2%
Cc1cccc(OCC(=O)NCC(C)(C)N2CCOCC2)c1 | -3.06%
COc1cc(CNCCN2CCOCC2)ccc1OCc1ccc(Cl)cc1.Cl | -42.1%
COC(=O)Cn1c(C(F)(F)F)nc2ccccc21 | 20.9%
O=C(CSc1nnc(-c2ccco2)n1-c1ccccc1)NCC1CCCO1 (stereo not drawn) | -10.1%
CN(C)C(CNC(=O)c1ccc(NS(=O)(=O)c2ccc(F)c(F)c2)cc1)c1ccccc1 (stereo not drawn) | -12.9%
O=C(COc1ccc(S(=O)(=O)N2CCCC2)cc1Cl)NCc1ccc2c(c1)OCO2 | -0.178%
CC(=O)N1CCN(C(=O)CSc2cc(C)c(Br)cc2C)CC1 | 3.18%
CCN(Cc1ccncc1)Cc1ccc(OC)c(OC)c1.O=C(O)C(=O)O | -6.49%
O=C(O)c1ccc(COc2ccccc2/C=C2\NC(=O)N(Cc3ccccc3)C2=O)cc1 | 24.5%
Cc1cc2nc(C)n(CCCNC(=O)Nc3ccc(C#N)cc3)c2cc1C | -34%
CCCCN(C)CCCNC(=O)c1ccc(N2CCCC2=O)cc1 | 9.92%
Cc1ccc2c(c1)c(CC(=O)Nc1ccc(C)c(F)c1)c(C(=O)O)n2C | 3.81%
Cc1ccc(OCC(=O)Nc2ccc(N3CCOCC3)cc2)cc1 | -5.73%
O=C(Nc1ccc(Br)cc1Cl)N1CCOCC1 | 4.16%

Reference: publication PMC4336329 (PLoS ONE, 2015)
